Data published in the supplement of paper PMC9151546.
Structures can show the parent of a compound that is named as a salt. Single values are uncertain, as repeats are few or missing.

What was measured:
CHO-K1 [1] = assay: relative survival (nuclei to bead ratio vs DMSO control) (% of vehicle control); higher = more surviving cells
Protocol: (§1)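 Flow-cytometric in vitro micronucleus assay (Litron MicroFlow) in CHO-K1 cells in 96-well plates, 19 concentrations (4.5-200 µM, n=1 per concentration). Without S9, cells were exposed for 24 h and sampled at 48 h. With Aroclor 1254-induced rat liver S9, cells were exposed for 3-4 h and sampled at 27-28 h. Read-outs are %MN and %hypodiploid nuclei relative to nucleated events, and relative survival as the nuclei-to-bead ratio versus the 1% DMSO vehicle control (x100).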

CHO-K1 [2] = assay: hypodiploid nuclei frequency (% of nucleated events); higher = more hypodiploid events (aneugenic)
Protocol: as §1

CHO-K1 [3] = assay: micronucleus frequency (% of nucleated events); higher = more micronuclei (genotoxic)
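Throughout, for hypodiploid nuclei frequency (% of nucleated events): hypodiploid nuclei gated on a flow cytometer with 488 nm excitation after SYTOX Green staining, cultures at 37 °C, positive controls vinblastine without S9 and cyclophosphamide with S9.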
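Throughout, for micronucleus frequency (% of nucleated events): cells lysed with nuclei stained by SYTOX Green, then micronucleus-gated events counted against nucleated events by flow cytometry with 488 nm excitation.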
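Throughout, for relative survival (nuclei to bead ratio vs DMSO control): Lysed-cell nuclei stained with SYTOX Green and counted against counting beads by flow cytometry at 488 nm excitation, with vinblastine (no S9) and cyclophosphamide (plus S9) as positive controls.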

Nc1ccn([C@@H]2O[C@H](CO)[C@@H](O)[C@@H]2O)c(=O)n1 [Cytarabine hydrochloride]
Conditions | hypodiploid nuclei frequency, CHO-K1 [2] [%] | micronucleus frequency, CHO-K1 [3] [%] | relative survival, CHO-K1 [1]
concentration: 4.5 (µM), S9 metabolic activation: with S9, exposure time: 3-4 hours | 0.18 | 0.74 | 112
concentration: 4.5 (µM), S9 metabolic activation: without S9, exposure time: 24 hours | 0.68 | 2.7 | 58.3
concentration: 5.63 (µM), S9 metabolic activation: with S9, exposure time: 3-4 hours | 0.16 | 1.06 | 111
concentration: 5.63 (µM), S9 metabolic activation: without S9, exposure time: 24 hours | 0.84 | 3 | 55.1
concentration: 7.04 (µM), S9 metabolic activation: with S9, exposure time: 3-4 hours | 0.26 | 0.94 | 109
concentration: 7.04 (µM), S9 metabolic activation: without S9, exposure time: 24 hours | 0.3 | 1.76 | 56.8
concentration: 8.8 (µM), S9 metabolic activation: with S9, exposure time: 3-4 hours | 0.16 | 1.8 | 94.2
concentration: 8.8 (µM), S9 metabolic activation: without S9, exposure time: 24 hours | 0.24 | 1.54 | 46.7
concentration: 11 (µM), S9 metabolic activation: with S9, exposure time: 3-4 hours | 0.24 | 2.34 | 115
concentration: 11 (µM), S9 metabolic activation: without S9, exposure time: 24 hours | 0.2 | 1.92 | 50.7
concentration: 13.7 (µM), S9 metabolic activation: with S9, exposure time: 3-4 hours | 0.24 | 1.72 | 103
concentration: 13.7 (µM), S9 metabolic activation: without S9, exposure time: 24 hours | 0.38 | 2.06 | 60.5
concentration: 17.2 (µM), S9 metabolic activation: with S9, exposure time: 3-4 hours | 0.18 | 1.96 | 117
concentration: 17.2 (µM), S9 metabolic activation: without S9, exposure time: 24 hours | 0.26 | 1.8 | 53.4
concentration: 21.5 (µM), S9 metabolic activation: with S9, exposure time: 3-4 hours | 0.22 | 3.5 | 94.8
concentration: 21.5 (µM), S9 metabolic activation: without S9, exposure time: 24 hours | 0.28 | 2.04 | 45.8
concentration: 26.8 (µM), S9 metabolic activation: with S9, exposure time: 3-4 hours | 0.34 | 3.32 | 102
concentration: 26.8 (µM), S9 metabolic activation: without S9, exposure time: 24 hours | 0.37 | 1.93 | 42.4
concentration: 33.6 (µM), S9 metabolic activation: with S9, exposure time: 3-4 hours | 0.4 | 3.8 | 92.9
concentration: 33.6 (µM), S9 metabolic activation: without S9, exposure time: 24 hours | – | – | 37.5
concentration: 41.9 (µM), S9 metabolic activation: with S9, exposure time: 3-4 hours | 0.44 | 3.08 | 77.6
concentration: 41.9 (µM), S9 metabolic activation: without S9, exposure time: 24 hours | 0.34 | 2.11 | 42.3
concentration: 52.4 (µM), S9 metabolic activation: with S9, exposure time: 3-4 hours | 0.62 | 4.3 | 74.3
concentration: 52.4 (µM), S9 metabolic activation: without S9, exposure time: 24 hours | 0.38 | 1.56 | 41
concentration: 65.5 (µM), S9 metabolic activation: with S9, exposure time: 3-4 hours | 0.54 | 3.98 | 70.3
concentration: 65.5 (µM), S9 metabolic activation: without S9, exposure time: 24 hours | 0.35 | 1.84 | 46.6
concentration: 81.9 (µM), S9 metabolic activation: with S9, exposure time: 3-4 hours | 0.56 | 4.82 | 69.6
concentration: 81.9 (µM), S9 metabolic activation: without S9, exposure time: 24 hours | 0.42 | 1.32 | 46.6
concentration: 102 (µM), S9 metabolic activation: with S9, exposure time: 3-4 hours | 0.48 | 5.22 | 61.6
concentration: 102 (µM), S9 metabolic activation: without S9, exposure time: 24 hours | – | – | 32.6
concentration: 128 (µM), S9 metabolic activation: with S9, exposure time: 3-4 hours | 0.48 | 4.62 | 61.3
concentration: 128 (µM), S9 metabolic activation: without S9, exposure time: 24 hours | 0.38 | 1.68 | 45.9
concentration: 160 (µM), S9 metabolic activation: with S9, exposure time: 3-4 hours | 0.54 | 6.5 | 69.3
concentration: 160 (µM), S9 metabolic activation: without S9, exposure time: 24 hours | 0.24 | 1.9 | 44.4
concentration: 200 (µM), S9 metabolic activation: with S9, exposure time: 3-4 hours | 0.58 | 6.04 | 57.6
concentration: 200 (µM), S9 metabolic activation: without S9, exposure time: 24 hours | 0.08 | 1.66 | 42.4

CCN(CC)C(=S)SSC(=S)N(CC)CC [Disulfiram]
Conditions | hypodiploid nuclei frequency, CHO-K1 [2] [%] | micronucleus frequency, CHO-K1 [3] [%] | relative survival, CHO-K1 [1]
concentration: 4.48 (µM), S9 metabolic activation: with S9, exposure time: 3-4 hours | 0.24 | 1.2 | 102
concentration: 4.48 (µM), S9 metabolic activation: without S9, exposure time: 24 hours | – | – | 37.48
concentration: 5.6 (µM), S9 metabolic activation: with S9, exposure time: 3-4 hours | 0.22 | 1.42 | 97.9
concentration: 5.6 (µM), S9 metabolic activation: without S9, exposure time: 24 hours | – | – | 39.8
concentration: 7 (µM), S9 metabolic activation: with S9, exposure time: 3-4 hours | 0.2 | 1.16 | 138
concentration: 7 (µM), S9 metabolic activation: without S9, exposure time: 24 hours | – | – | 38.2
concentration: 8.75 (µM), S9 metabolic activation: with S9, exposure time: 3-4 hours | 0.2 | 2.08 | 106
concentration: 8.75 (µM), S9 metabolic activation: without S9, exposure time: 24 hours | – | – | 38.4
concentration: 10.9 (µM), S9 metabolic activation: with S9, exposure time: 3-4 hours | 0.32 | 1.6 | 88.9
concentration: 10.9 (µM), S9 metabolic activation: without S9, exposure time: 24 hours | – | – | 38
concentration: 13.7 (µM), S9 metabolic activation: with S9, exposure time: 3-4 hours | 0.26 | 1.44 | 103
concentration: 13.7 (µM), S9 metabolic activation: without S9, exposure time: 24 hours | – | – | 37.2
concentration: 17.1 (µM), S9 metabolic activation: with S9, exposure time: 3-4 hours | 0.18 | 1.48 | 106
concentration: 17.1 (µM), S9 metabolic activation: without S9, exposure time: 24 hours | – | – | 40.7
concentration: 21.4 (µM), S9 metabolic activation: with S9, exposure time: 3-4 hours | 0.5 | 1.12 | 116
concentration: 21.4 (µM), S9 metabolic activation: without S9, exposure time: 24 hours | – | – | 34.4
concentration: 26.7 (µM), S9 metabolic activation: with S9, exposure time: 3-4 hours | 0.28 | 1.2 | 124
concentration: 26.7 (µM), S9 metabolic activation: without S9, exposure time: 24 hours | – | – | 34.1
concentration: 33.4 (µM), S9 metabolic activation: with S9, exposure time: 3-4 hours | 0.1 | 1.28 | 131
concentration: 33.4 (µM), S9 metabolic activation: without S9, exposure time: 24 hours | – | – | 31.7
concentration: 41.7 (µM), S9 metabolic activation: with S9, exposure time: 3-4 hours | 0.24 | 1.08 | 105
concentration: 41.7 (µM), S9 metabolic activation: without S9, exposure time: 24 hours | – | – | 26.8
concentration: 52.2 (µM), S9 metabolic activation: with S9, exposure time: 3-4 hours | 0.38 | 0.88 | 89.7
concentration: 52.2 (µM), S9 metabolic activation: without S9, exposure time: 24 hours | – | – | 24.3
concentration: 65.2 (µM), S9 metabolic activation: with S9, exposure time: 3-4 hours | 0.24 | 1.26 | 85.8
concentration: 65.2 (µM), S9 metabolic activation: without S9, exposure time: 24 hours | – | – | 23.6
concentration: 81.5 (µM), S9 metabolic activation: with S9, exposure time: 3-4 hours | 0.48 | 1.58 | 71.4
concentration: 81.5 (µM), S9 metabolic activation: without S9, exposure time: 24 hours | – | – | 19.8
concentration: 102 (µM), S9 metabolic activation: with S9, exposure time: 3-4 hours | 0.52 | 3.2 | 51.7
concentration: 102 (µM), S9 metabolic activation: without S9, exposure time: 24 hours | – | – | 11.6
concentration: 127 (µM), S9 metabolic activation: with S9, exposure time: 3-4 hours | 0.27 | 2.87 | 43.8
concentration: 159 (µM), S9 metabolic activation: with S9, exposure time: 3-4 hours | 0.51 | 5.61 | 41.1
concentration: 199 (µM), S9 metabolic activation: with S9, exposure time: 3-4 hours | – | – | 24.1
